# From patent US5391540A, “Substituted pyridine compounds” (Rohm and Haas Company, priority 1993, dated 1995)
# At least one read-out could not be matched to a standard name with certainty. Some ranges recur; such a range may be that of the whole group of compounds.
# Legend:
# Assay in all cases: Post-emergence herbicidal activity (Table C)
# Type in all cases: in vivo
# Seedling Johnsongrass = settings: Sejg, 11.2 kg/ha, 10-14 days
# Annual Bluegrass = settings: Anbg, 11.2 kg/ha, 10-14 days
# Cocklebur = settings: Cobu, 11.2 kg/ha, 10-14 days
# Morningglory = settings: Mogl, 11.2 kg/ha, 10-14 days
# Downy Brome = settings: Dobr, 11.2 kg/ha, 10-14 days
# Velvetleaf = settings: Vele, 11.2 kg/ha, 10-14 days
# Yellow Nutsedge = settings: Yens, 11.2 kg/ha, 10-14 days
# Indian Mustard = settings: Inmu, 11.2 kg/ha, 10-14 days
# Wild Buckwheat = settings: Wibw, 11.2 kg/ha, 10-14 days
# Barnyardgrass = settings: Bygr, 11.2 kg/ha, 10-14 days
# Rhizome Johnsongrass = settings: Rhjg, 11.2 kg/ha, 10-14 days
# Quackgrass = settings: Rhqg, 11.2 kg/ha, 10-14 days
# Canada thistle = settings: Cath, 11.2 kg/ha, 10-14 days
# Pennsylvania Smartweed = settings: Pesw, 11.2 kg/ha, 10-14 days
# Common Lambsquarters = settings: Colq, 11.2 kg/ha, 10-14 days
SMILES,post-emergent herbicidal activity index (Seedling Johnsongrass),post-emergent herbicidal activity index (Annual Bluegrass),post-emergent herbicidal activity index (Cocklebur),post-emergent herbicidal activity index (Morningglory),post-emergent herbicidal activity index (Downy Brome),post-emergent herbicidal activity index (Velvetleaf),post-emergent herbicidal activity index (Yellow Nutsedge),post-emergent herbicidal activity index (Indian Mustard),post-emergent herbicidal activity index (Wild Buckwheat),post-emergent herbicidal activity index (Barnyardgrass),post-emergent herbicidal activity index (Rhizome Johnsongrass),post-emergent herbicidal activity index (Quackgrass),post-emergent herbicidal activity index (Canada thistle),post-emergent herbicidal activity index (Pennsylvania Smartweed),post-emergent herbicidal activity index (Common Lambsquarters)
"COC(=O)c1c(OC)nc(C(F)(F)F)c(C(=O)SC)c1CC1CC1 [Compound 119, 3-pyridinecarboxylic acid, 4-(cyclopropylmethyl)-2-methoxy-5-[(methylthio)carbonyl]-6-(trifluoromethyl)-, methyl ester]",1 (25-49% inhibition),0 (0-24% inhibition),1 (25-49% inhibition),0 (0-24% inhibition),0 (0-24% inhibition),1 (25-49% inhibition),0 (0-24% inhibition),2 (50-74% inhibition),2 (50-74% inhibition),2 (50-74% inhibition),,,,,
"COC(=O)c1c(OC)nc(C(F)(F)F)c(C(=O)n2cccn2)c1CC1CC1 [Compound 116, 3-pyridinecarboxylic acid, 4-(cyclopropylmethyl)-2-methoxy-5-(1H-pyrazo1-1-ylcarbonyl)-6-(trifluoromethyl)-, methyl ester]",2 (50-74% inhibition),0 (0-24% inhibition),0 (0-24% inhibition),1 (25-49% inhibition),0 (0-24% inhibition),1 (25-49% inhibition),0 (0-24% inhibition),2 (50-74% inhibition),0 (0-24% inhibition),2 (50-74% inhibition),,,,,
"COC(=O)c1c(OC)nc(C(F)(F)F)c(C(=O)SC)c1C1CCC1 [Compound 137, 3-pyridinecarboxylic acid, 4-cyclobuty1-2-methoxy-5-[(methylthio)carbonyl]-6-(trifluoromethyl)-, methyl ester]",2 (50-74% inhibition),1 (25-49% inhibition),2 (50-74% inhibition),1 (25-49% inhibition),0 (0-24% inhibition),1 (25-49% inhibition),0 (0-24% inhibition),0 (0-24% inhibition),2 (50-74% inhibition),2 (50-74% inhibition),,,,,
"COC(=O)c1c(OC)nc(C(F)(F)F)c(C2OCC[S+]2[O-])c1CC(C)C (stereo not drawn) [Compound 126, 3-pyridinecarboxylic acid, 2-methoxy-4-(2-methylpropyl)-5-(1,3-oxathiolan-2-yl)-6-(trifluoromethyl)-, methyl ester, S-oxide]",0 (0-24% inhibition),0 (0-24% inhibition),0 (0-24% inhibition),0 (0-24% inhibition),0 (0-24% inhibition),0 (0-24% inhibition),0 (0-24% inhibition),0 (0-24% inhibition),0 (0-24% inhibition),0 (0-24% inhibition),,,,,
"COC(=O)c1c(OC)nc(C(F)(F)F)c(C(=O)n2cc(N)cn2)c1CC(C)C [Compound 108, 3-pyridinecarboxylic acid, 5-[(4-amino-1H-pyrazo1-1-yl)carbonyl]-2-methoxy-4-(2-methylpropyl)-6-(trifluoromethyl)-, methyl ester]",0 (0-24% inhibition),0 (0-24% inhibition),0 (0-24% inhibition),0 (0-24% inhibition),0 (0-24% inhibition),0 (0-24% inhibition),0 (0-24% inhibition),0 (0-24% inhibition),0 (0-24% inhibition),0 (0-24% inhibition),,,,,
"COC(=O)c1c(OC)nc(C(F)(F)F)c(C(Cl)=NCCCl)c1CC(C)C [Compound 95, 3-pyridinecarboxylic acid, 5-[(chloro[2-chloroethyl)imino)methyl]-2-methoxy-4-(2-methylpropyl)-6-(trifluoromethyl)-, methyl ester]",0 (0-24% inhibition),0 (0-24% inhibition),0 (0-24% inhibition),0 (0-24% inhibition),0 (0-24% inhibition),0 (0-24% inhibition),0 (0-24% inhibition),0 (0-24% inhibition),0 (0-24% inhibition),0 (0-24% inhibition),,,,,
"COC(=O)c1c(OC)nc(C(F)(F)F)c(N=C2CCCO2)c1CC(C)C [Compound 121, 3-pyridinecarboxylic acid, 5-[(dihydro-2(3H)-furanylidene)amino]-2-methoxy-4-(2-methylpropyl)-6-(trifluoromethyl)-, methyl ester]",2 (50-74% inhibition),0 (0-24% inhibition),,2 (50-74% inhibition),1 (25-49% inhibition),1 (25-49% inhibition),0 (0-24% inhibition),0 (0-24% inhibition),2 (50-74% inhibition),2 (50-74% inhibition),,,,,
"COC(=O)c1c(OC)nc(C(F)(F)F)c(N)c1CC(C)C [Compound 36, 3-pyridinecarboxylic acid, 5-amino-2-methoxy-4-(2-methylpropyl)-6-(trifluoromethyl)-, methyl ester]",,,0 (0-24% inhibition),0 (0-24% inhibition),0 (0-24% inhibition),0 (0-24% inhibition),0 (0-24% inhibition),,,0 (0-24% inhibition),0 (0-24% inhibition),0 (0-24% inhibition),0 (0-24% inhibition),0 (0-24% inhibition),1 (25-49% inhibition)
"CCOc1nc(C(F)(F)F)c(C(=O)SC)c(CC(C)C)c1C(=O)OC [Compound 45, 3-pyridinecarboxylic acid, 2-ethoxy-4-(2-methylpropyl)-5-[(methylthio)carbonyl]-6-(trifluoromethyl)-, methyl ester]",,,0 (0-24% inhibition),0 (0-24% inhibition),0 (0-24% inhibition),0 (0-24% inhibition),0 (0-24% inhibition),,,1 (25-49% inhibition),0 (0-24% inhibition),0 (0-24% inhibition),0 (0-24% inhibition),0 (0-24% inhibition),0 (0-24% inhibition)
"COC(=O)c1c(OC)nc(C(F)(F)F)c(C(=O)N2CCSCC2)c1CC(C)C [Compound 70, 3-pyridinecarboxylic acid, 2-methoxy-4-(2-methylpropyl)-5-(4-thiomorpholinylcarbonyl)-6-(trifluoromethyl)-, methyl ester]",,,0 (0-24% inhibition),0 (0-24% inhibition),0 (0-24% inhibition),0 (0-24% inhibition),0 (0-24% inhibition),,,0 (0-24% inhibition),0 (0-24% inhibition),0 (0-24% inhibition),0 (0-24% inhibition),0 (0-24% inhibition),0 (0-24% inhibition)
